In all, about 48,000 compounds went through this assay and about 450 (0.94%) were called active. Another 19% or so got no clear call; they are omitted. The call rests on the fitted dose curve; in most records, active means well fitted inhibition curve with a large enough effect; inconclusive means small, poorly fitted or top-dose-only effect; inactive means no such curve, though single readings can be large or run the other way. This is one part of the list.
Experiment: Primary qHTS for Identification of Small Molecule Inhibitors of Huntingtin Promoter Activity; further: nearly all actives have a fitted effect of over 50% in size
Details: HEK293 HTT promoter firefly luciferase reporter (activity 0% = vehicle and -100% = no light), 24 h; series mostly up to 57.5 µM; activity change, negative = inhibition: at the top concentration
In short: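 Luminescence was read after Dual-Glo reagent and a 10 min room-temperature incubation. Values were normalized to vehicle (0% activity) and zero RLU (-100% activity). Reporter HEK293 cells had been exposed to compounds (up to 57.5 uM final) for 24 h.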
Potency means the concentration at half of the fitted maximal effect.

Q: For O=C(NCCCCc1ccccc1)c1nn(-c2ccccc2F)nc1CO, which “activity change, negative = inhibition” value is on record?
A: inactive: -23.7%

Q: For Cc1nn(CCC(=O)NCc2cccc(Br)c2)c(=O)c2nn(-c3ccccc3)c(C)c12, which “activity change, negative = inhibition” value is on record?
A: inactive: -10%

Q: For CCn1c(=O)c2sccc2n2c(CCC(=O)N3CCN(c4ccccc4OC)CC3)nnc12, which “activity change, negative = inhibition” value is on record?
A: inactive: 3.61%

Q: With COc1ccc(-c2nnc(SCC(=O)Nc3ccccc3C)o2)cc1OC as the compound, how does the “activity change, negative = inhibition” value read?
A: inactive: 4.88%

Q: Which “activity change, negative = inhibition” value does the source give for CCCOc1ccc(C(=O)NCC(c2ccc(OC)cc2)N2CCCCC2)cc1 (stereo unspecified) here?
A: inactive: -10.4%

Q: With CC(C)NC(=O)Cn1ccc2cc(S(=O)(=O)N3CCCCCC3)ccc21 as the compound, how does the “activity change, negative = inhibition” value read?
A: inactive: -20.9%

Q: For O=S(=O)(c1ccccc1)c1nc(-c2cccs2)oc1N1CCCCC1, which “activity change, negative = inhibition” value is on record?
A: inactive: -34.6%

Q: For Cc1cccc(OCCCSc2nc(-c3ccc(C(C)(C)C)cc3)nc3cc(=O)[nH]n23)c1C, which “activity change, negative = inhibition” value is on record?
A: inactive: 4.64%

Q: With C1Cc2[nH]nc(-c3nn[nH]n3)c2C1 as the compound, how does the “activity change, negative = inhibition” value read?
A: inactive: 0.93%

Q: For O=C(O)[C@H](CC(=O)N1C[C@@H]2CCCC[C@H]2C1)Cc1ccccc1, which “activity change, negative = inhibition” value is on record?
A: inactive: 13.3%

Q: With CCCCCn1c(=O)[nH]c2cc(C(=O)NCc3ccc(F)cc3)ccc2c1=O as the compound, how does the “activity change, negative = inhibition” value read?
A: inactive: -2.77%

Q: With Cc1cccc(-n2c(=O)c3c(c4cc(C)ccc4n3C)n(CC(=O)Nc3ccccc3Cl)c2=O)c1 as the compound, how does the “activity change, negative = inhibition” value read?
A: inactive: -15.2%

Q: With CC(C)c1ccc(S(=O)(=O)c2nnn3c2nc(N2CCOCC2)c2sccc23)cc1 as the compound, how does the “activity change, negative = inhibition” value read?
A: inactive: -5.75%

Q: Which “activity change, negative = inhibition” value does the source give for COc1ccc(CCC(=O)NCc2nc3cccnc3n2Cc2cccc(OC)c2)cc1 here?
A: inactive: -2.86%

Q: With COc1ccc(Cl)cc1NC(=O)Cn1nc(C(F)(F)F)c2c1CCC2 as the compound, how does the “activity change, negative = inhibition” value read?
A: inactive: -27.8%

Q: For COc1nc(N)nc2c1ncn2[C@@H]1O[C@H](CO)[C@@H](O)[C@@H]1O, which activity change, negative = inhibition is on record?
A: inactive

Q: For CCCCc1nn2c(=O)cc(COC(=O)C(C)Oc3ccccc3)nc2s1 (stereo unspecified), which “activity change, negative = inhibition” value is on record?
A: inactive: -2.13%

Q: With COc1ccc(NS(=O)(=O)c2ccc3c(c2)CCCN3C(=O)C2CCC2)cc1OC as the compound, how does the Potency read?
A: active: 1780 nM

Q: For CC(C)CNC(=O)c1c(-c2ccccc2)c(-c2ccccc2)nn(C)c1=O, which “activity change, negative = inhibition” value is on record?
A: inactive: -15%

Q: For COc1ccc2c(c1)CC(NC(=O)Nc1ccc(NC(C)=O)cc1)CO2 (stereo unspecified), which “activity change, negative = inhibition” value is on record?
A: inactive: 0.824%

Q: For COc1ccccc1CNC(=O)C1CCN(Cc2cc3ccccc3n2Cc2cccc(C)c2)CC1, which “activity change, negative = inhibition” value is on record?
A: inactive: -18.6%

Q: For Cc1ccccc1Cn1c(=O)n(CCCCC(=O)NCc2ccccc2Cl)c(=O)c2ccccc21, which “activity change, negative = inhibition” value is on record?
A: inactive: -8.76%

Q: With O=C(CSc1nnc(-c2ccncc2)n1-c1ccccc1)Nc1ccc(Br)cc1 as the compound, how does the “activity change, negative = inhibition” value read?
A: inactive: 16.3%

Q: With CCOc1ccc(NC(=O)C2CCN(S(=O)(=O)c3ccc4c(c3)oc(=O)n4C)CC2)cc1 as the compound, how does the “activity change, negative = inhibition” value read?
A: inactive: -4.39%

Q: For CCOc1ccc2nc(N3CCC(C(=O)Nc4ccc(Br)cc4F)CC3)sc2c1, which “activity change, negative = inhibition” value is on record?
A: inactive: 7.41%

Q: For CCCNC(=O)c1c(NC(=O)c2ccc(C)cc2)sc2c1CCCCC2, which “activity change, negative = inhibition” value is on record?
A: inactive: -1.01%

Q: Which “activity change, negative = inhibition” value does the source give for CC(=O)N1CCOc2cc(S(=O)(=O)Nc3cc(C(F)(F)F)ccc3Cl)c(C)cc21 here?
A: inactive: 7.97%

Q: Which “activity change, negative = inhibition” value does the source give for CCSc1ncc(Cl)c(C(=O)N(Cc2ccc(C(C)(C)C)cc2)C2CCS(=O)(=O)C2)n1 (stereo unspecified) here?
A: inactive: -27.1%

Q: With COc1ccc2c(c1)c1c(c(=O)n(Cc3ccccc3)c(=O)n1Cc1ccccc1)n2C as the compound, how does the “activity change, negative = inhibition” value read?
A: inactive: -2.47%

Q: For CCOC(=O)c1c(C)oc2nc(C)nc(NCCCN3CCN(c4cc(Cl)ccc4C)CC3)c12, which “activity change, negative = inhibition” value is on record?
A: inactive: 5.62%

Q: For O=C(CCCN1CCC(O)(c2cccc(C(F)(F)F)c2)CC1)c1ccc(F)cc1, which “activity change, negative = inhibition” value is on record?
A: inactive: -10.7%

Q: Which “activity change, negative = inhibition” value does the source give for Cc1ccc(-c2noc(-c3nnn(CC(=O)Nc4cccc(C(F)(F)F)c4)c3N)n2)cc1 here?
A: inactive: 18.7%

Q: Which “activity change, negative = inhibition” value does the source give for Cc1ccc(C(=O)NCC(=O)OCc2cc(=O)n3nc(C4CC4)sc3n2)cc1 here?
A: inactive: -10.3%

Q: Which “activity change, negative = inhibition” value does the source give for COc1ccc(S(=O)(=O)Cc2ccc(C(=O)N3CCN(c4cc(C)ccc4C)CC3)o2)cc1 here?
A: inactive: -16.6%

Q: With O=C(O)c1cccnc1SCc1cccc(Cl)c1 as the compound, how does the “activity change, negative = inhibition” value read?
A: inactive: 0.16%

Q: With O=C(Nc1cccc(-c2nc3ccccc3[nH]2)c1)c1c(F)cccc1F as the compound, how does the “activity change, negative = inhibition” value read?
A: inactive: 17.9%

Q: With Cc1cccc(OCCSc2nc3ccccc3n2CC(=O)N2CCOCC2)c1C as the compound, how does the “activity change, negative = inhibition” value read?
A: inactive: -31.3%

Q: Which “activity change, negative = inhibition” value does the source give for CCOc1ccc(S(=O)(=O)Nc2ccc(OC)c(Cl)c2)c2cccnc12 here?
A: inactive: -23.9%

Q: With Cc1ccc(NC(=O)C2CCCN(S(=O)(=O)c3c(C)nn(C)c3C)C2)c(C)c1 (stereo unspecified) as the compound, how does the “activity change, negative = inhibition” value read?
A: inactive: -18.5%

Q: Which “activity change, negative = inhibition” value does the source give for CCOc1ccc(C2C(C(N)=O)=C(C)Nc3nc(-c4cccc(Cl)c4)nn32)cc1OC (stereo unspecified) here?
A: inactive: -29.3%

Q: Which “activity change, negative = inhibition” value does the source give for CC[C@@H]([C@H](C)O)n1ncn(-c2ccc(N3CCN(c4ccc(OCC5CO[C@@](Cn6cncn6)(c6ccc(F)cc6F)C5)cc4)CC3)cc2)c1=O (stereo partly specified) here?
A: inactive: -21%

Q: Which “activity change, negative = inhibition” value does the source give for CCN1C(=O)c2ccccc2S(=O)c2ccc(C(=O)NCc3ccccc3OC)cc21 (stereo unspecified) here?
A: inactive: -17.6%

Q: With O=C(O)c1c2c(nc3ccc(S(=O)(=O)N4CCC(C(=O)NCc5ccc(Cl)cc5)CC4)cc13)CCCC2 as the compound, how does the “activity change, negative = inhibition” value read?
A: inactive: -2.47%

Q: For CCCCCOc1ccc(NC(=O)Cn2c(-c3cncs3)nc3ccccc32)cc1, which “activity change, negative = inhibition” value is on record?
A: inactive: -28.6%

Q: For COc1ccc(S(=O)(=O)NCC(c2ccco2)N2CCN(c3ccccc3F)CC2)cc1C (stereo unspecified), which “activity change, negative = inhibition” value is on record?
A: inactive: -29.8%

Q: With COc1cc(/C=C/c2nc3cc(Cl)ccc3c(=O)n2-c2ccc(C)cc2C)cc(OC)c1OC as the compound, how does the “activity change, negative = inhibition” value read?
A: inactive: -24.4%

Q: With CSc1ccc(NC(=O)Cn2nnnc2-c2ccccc2F)cc1 as the compound, how does the “activity change, negative = inhibition” value read?
A: inactive: 6.66%

Q: For CCOC(=O)c1c(C)oc2nc(C)nc(N3CCN(c4cccc(C)c4C)CC3)c12, which “activity change, negative = inhibition” value is on record?
A: inactive: 9.01%

Q: For CCc1cccc(NC(=O)c2cccc3c2C(=O)N(C2CCCCC2)C3)c1, which “activity change, negative = inhibition” value is on record?
A: inactive: 4.51%

Q: For O=C(NCC(c1cccnc1)N1CCc2ccccc21)C(=O)Nc1ccccc1F (stereo unspecified), which “activity change, negative = inhibition” value is on record?
A: inactive: -21.2%

Q: For CC(NC(=O)c1cc(-c2ccc(Cl)cc2)on1)c1ccccc1 (stereo unspecified), which “activity change, negative = inhibition” value is on record?
A: inactive: 2.36%

Q: For CCOC(=O)c1nnn(CC(=O)NC(=O)Nc2ccc(F)cc2)c1C(=O)OCC, which “activity change, negative = inhibition” value is on record?
A: inactive: -15.9%

Q: With CC1Cn2cc(C(=O)Nc3ccccc3C(F)(F)F)c(=O)c3c(Cl)ccc(c32)O1 (stereo unspecified) as the compound, how does the “activity change, negative = inhibition” value read?
A: inactive: -12%

Q: For Cc1oc2ncn(CC(C)C)c(=O)c2c1C(=O)N(Cc1ccccc1)C(C)C, which “activity change, negative = inhibition” value is on record?
A: inactive: -22.1%

Q: For CN(C)c1ccccc1CN1CCCN(Cc2ccccc2N(C)C)C1c1ccncc1, which “activity change, negative = inhibition” value is on record?
A: inactive: -4.32%

Q: For O=c1c2ccccc2nc2n1CCc1c-2[nH]c2ccccc12, which “activity change, negative = inhibition” value is on record?
A: inactive: 19.6%

Q: With COc1cc(OC)c(NC(=O)c2cn(C)c(=O)c3cc(OC)c(OC)cc23)cc1Cl as the compound, how does the “activity change, negative = inhibition” value read?
A: inactive: -4.43%

Q: Which “activity change, negative = inhibition” value does the source give for O=C(/C=C/c1ccccc1)N1CCN(Cc2cc(=O)n3nc(-c4ccccc4Cl)sc3n2)CC1 here?
A: inactive: -23.6%

Q: With c1ccc(CNCCNCc2ccccc2)cc1 as the compound, how does the “activity change, negative = inhibition” value read?
A: inactive: 4.87%

Q: For O=C(CN1C(=O)C2(SCC(=O)N2c2ccc(Cl)cc2)c2ccccc21)NCCc1ccccc1 (stereo unspecified), which “activity change, negative = inhibition” value is on record?
A: inactive: -20.8%

Q: With COc1ccc(Cl)cc1NS(=O)(=O)c1c(C)[nH]c(=O)[nH]c1=O as the compound, how does the “activity change, negative = inhibition” value read?
A: inactive: -0.15%
